# Laboratory results reported in the supplement of paper PMC11417369.
# ± gives the standard deviation of the averaged measurements. The list shows a part of the results.
# Tested on: PfAP2-G AP2 domain (GST-tagged)
# Test: gcPBM binding intensity (ln(normalized median fluorescence intensity)); higher = stronger DNA binding
# How it was run: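 Alexa488 anti-GST antibody, scanned at 488 nm, detected GST-tagged P. falciparum DNA-binding domains that had been expressed in E. coli and incubated for 1 h on an Agilent 4 × 180k array. The array carried primer-extended double-stranded 36-bp intergenic genomic probes and negative controls. Binding intensity is the highest Masliner-normalised natural-log median intensity across replicate spots of either orientation of each probe.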
row,Sequence,gcPBM binding intensity (ln)
1,TAGTTTTTTATATATTGTACAAATAATATATTATAT [XGTACX_site2564],10.9 ± 0.57
2,ATTTTATGATATATTTGTACTTAACATTTGGATATA [XGTACX_site5888],11 ± 0.63
3,ATAAGAAAATCAAAAAGTACTTTTTACAAAGATAAA [XGTACX_site824],11.1 ± 0.64
4,ATATACTATATATAATGTACATATATATTATTATGC [XGTACX_site2957],10.9 ± 0.47
5,TCTTTTTTTAATAAAACATGCAATATTATATATGTA [TGCATGCA_site236],9.745 ± 0.049
6,GTAATTATTAATAAAACATGCGTATAAAATTTTCTC [TGCATGCA_site50],9.99 ± 0.014
7,TAAATTCTTTAAAACTTTAAAACAAAAAAAAAAAAA [CACACA_negctrl_site1078],9.51 ± 0.45
8,AAAAAAATATATATATATATATATATATATTTATAT [XGTACX_negctrl_site86],9.255 ± 0.035
9,TGCAAAGGTGAAAGAACACACAAAAAAAAAAAAAAA [CACACA_site4024],9.81 ± 0.54
10,TTCAATGCTAATTTATGTACATATGTATATAAAATA [XGTACX_site8335],11.1 ± 0.76
11,CCCAAAAAAAATTTATGTACTTATTAAATATATATA [XGTACX_site6455],11.3 ± 0.86
12,TTTATATAAATTTAAGTGCAAAATGAACAAGTGAAA,10.3 ± 0.3
13,AAAATATATATTTGTTGTACAATATTAATTATTAAA [XGTACX_site1612],11.5 ± 0.81
14,TTTTTAATCTCATATGTATAATATATTTTTATTAAA [XGTACX_negctrl_site236],9.93 ± 0.23
15,AATTTTAGATTTAGCACACATTTTTTTTTTTTTTTT [CACACA_site6105],10.4 ± 0.25
16,TTCAAAGGGAAATTAACACACACATATATATATATA [CACACA_site8777],10.2 ± 0.67
17,TATGAAAATAAAATATGTACATATTTTAAATGTTAT [XGTACX_site7352],11.4 ± 0.81
18,CAAATGTGTTCTTCAGGTACAGATACACATTTATGA [XGTACX_site2664],11 ± 0.5
19,TAAAAAATTATATATTGTACGAATGCATAAAAAAAA [XGTACX_site4606],10.8 ± 0.41
20,AAAAAAAAAAAAAGAACATGCGACTTTAAGAACTGG [TGCATGCA_site792],9.91 ± 0.099
21,CACCATGTTAACAAAGCATGCATCTCTATAGTTTTA [TGCATGCA_site97],9.995 ± 0.049
22,AATATAAATAATTATACACACTTAATATATATATAC [CACACA_site5533],10.01 ± 0.035
23,ATAACAAAAAAAAAGGTGCTACAAAATGAATAAAAA [GTGCAC_site9659],9.975 ± 0.035

row,Sequence,gcPBM binding intensity (ln)
1,ATATTTTATTTTAATACACACAAGTTATATAACCAC [CACACA_site6508],10.3 ± 0.35
2,TACATATATATATATGTACACACATTAATAAAAAAA [CACACA_site9058],11.4 ± 0.87
3,AAATATATATATATATATATAAATATATACATATAT [TGCATGCA_negctrl_site517],9.35 ± 0.23
4,CTTTAAATTAATAAAAGTACATTATTTATATATTTT [XGTACX_site4808],11.1 ± 0.73
5,ATATTTAGGAAAAATAGTACACATTTAAATAATAAT [XGTACX_site7989],11.5 ± 1.1
6,TAGGTGCCTTTTTTCACACACATGTCAACTAAATAT [CACACA_site2656],10.2 ± 0.2
7,TATTAATTTAAATGGGTGCAAAACCTATATAAATAT,10.2 ± 0.26
8,AAAATGTCCCGTAGAAAATAAATTTATTACGCAATA [CACACA_negctrl_site1564],10.2 ± 0.13
9,AACATATATAAATACACACACATATATATATGAAAT [CACACA_site4312],10.1 ± 0.25
10,ATTTATGTTAATAAGTGTACAATAAATTTTTTTTAT [XGTACX_site7658],11.3 ± 0.83
11,ATTAATAAATTCAATTGTACTTGTTTATACATAAAA [XGTACX_site3733],11.1 ± 0.8
12,AAAATTAACCGTAACACACACACATATAAATATGTA [CACACA_site7791],9.89 ± 0.014
13,TTGTTTAAGTCACGAACACACATATATCATCAATTT [CACACA_site986],10.11 ± 0.071
14,TAAAAGTTCACCTGTACACACATATAAATATGTACA [CACACA_site6901],11.7 ± 0.85
15,CGTTTTCTATATCATTGTACATATTCATGTGTAAAT [XGTACX_site2741],10.9 ± 0.65
16,AACAGACGAAGACACACACACATATATATATATATA [CACACA_site1020],10.2 ± 0.31
17,TTATTTTATTTTTGTGCACACTGATAAATTGAAAAG [CACACA_site2949],10.7 ± 0.52
18,TTATGGTGCAACATTATGCACACCGTTAAATAACTA [CACACA_site3846],10.4 ± 0.4
19,ATTTATTTTGTTGTTGTTTTTATTTGATTGTTTTAT [CACACA_negctrl_site1275],9.785 ± 0.007
20,GTTTGAATGGCGCACTGTACACATATATACATATAG [XGTACX_site8619],11.5 ± 0.79
21,ACAAAATTATGTAGATGTACAGACATAGAAAGAGAT [XGTACX_site3096],11.3 ± 0.67
22,ATTTATGAAAAATGTACACACATCAAATGCTTATAT [CACACA_site4068],11.3 ± 0.73
23,GATATTATAAAATAAAAATAAATCATTTCTATTCAT [CACACA_negctrl_site334],9.48 ± 0.13

row,Sequence,gcPBM binding intensity (ln)
1,TATATATATATGTGTACACATGTCGCATTTTTTTAT [CACACA_site4648],11.6 ± 0.86
2,TCATGGAATATTTAAAGTACAAAAAGTGTTCTTTAC [XGTACX_site715],11.2 ± 0.69
3,TAGTCATATATATATGTACACACATATATATATTTA [CACACA_site8413],11.2 ± 0.91
4,TTATGTGTATAGGTTTGTACATAAAATGATGTATAG [XGTACX_site1401],10.9 ± 0.58
5,TTTTCTTATAAATGAAGTACAAAAAAAAAATATATA [XGTACX_site1352],11.3 ± 0.81
6,TGATAGCACCTTATATGTACATATAATATATTATTA [XGTACX_site837],11.1 ± 0.65
7,ATATATTATGGGTGTGCACACAATATTTATATGTTC [CACACA_site2270],10.6 ± 0.29
8,TTATAATAAATATATAAAAAAAAAAAAAAAAAAAAA [CACACA_negctrl_site1639],9.43 ± 0.54
9,TTTTAAATATGCCATACACACTACTCTATAATAAAT [CACACA_site6987],9.995 ± 0.092
10,TTATCATATAATTATTGTACTAAAAAAAAAGCGAGT [XGTACX_site3086],11.2 ± 0.87
11,ACATATATGGAGCTTATACACACTTTTATATTTTAA [CACACA_site3854],10.04 ± 0.049
12,TAATATGTTTATGGTAACATACAAAAATGTATATAT [GTGCAC_negctrl_site204],10.2 ± 0.26
13,TATTTTTTATTTTAAATCCTCTGATATTTAATTTGT [TGCATGCA_negctrl_site84],9.905 ± 0.021
14,TATCCCCTTGTCCATATTAATTGTGACATCATATAT [XGTACX_negctrl_site9],10.7 ± 0.48
15,ATGTGTATATATATGTGTACATAATTTGTGTTATTC [XGTACX_site2509],11.4 ± 0.84
16,TGAAAAATGTAATGCTCACACATATATATATATATA [CACACA_site5213],10 ± 0.46
17,GATTTTAATGGGTGTACACATTTATTTATATAAAGT [CACACA_site5317],11.7 ± 0.93
18,AAGGTATAATATATTTGTACATATACATTTTTGAAT [XGTACX_site6493],10.9 ± 0.61
19,TTATGGTGCATGAAATCACACATTGATATATATGCT [CACACA_site5352],9.72 ± 0.15
20,ATATATATATATATATGTACATATATATATTATATT [XGTACX_site6303],11.2 ± 0.63
21,ACATTTAAATAATATGTGCACAGCTATATTTTCTTT [GTGCAC_site9562],10.3
22,TTATTTTTTTGGAATTCACACACAAAAAAAAAAATA [CACACA_site8650],10.1 ± 0.4
23,AATTGAGAAGTGTGTTGTACATAATGGCACATACCT [XGTACX_site1370],11.2 ± 0.7

row,Sequence,gcPBM binding intensity (ln)
1,ACCTTAAAAATAACTGCACACAAAAATAAATACCTT [CACACA_site8902],10.2 ± 0.23
2,ACGTAAACATGTAGAAGGCATTACACAATGGTATAC [TGCATGCA_negctrl_site512],9.91 ± 0.18
3,TAGAATGAAAAAAAAGCATGCGGGCAAAAATTTTTA [TGCATGCA_site926],9.97 ± 0.19
4,GTGTCTTTTATTAAATGTACATATTCATAGATAAAA [XGTACX_site8578],11.3 ± 0.87
5,TTTTTAATATATATCACACATATATATTTTTAATTA [CACACA_site6099],9.49 ± 0.14
6,ATAAAAATCTTTAGTAGTACATTATAAAAAACTATT [XGTACX_site5531],11.4 ± 0.88
7,ATGTGAACATTCAATGCACACGATGTAATTATACAT [CACACA_site15],10.1 ± 0.18
8,CTAATCGTGCACAACTGTACATTTGTCAAGGGCAAT [XGTACX_site8662],11.1 ± 0.65
9,AAAAAAAAAATGAGCACACATAAATAAAAACAAACA [CACACA_site1573],10.14 ± 0.035
10,ACCTATTTCAAACACACACACACACTAACAAACATA [CACACA_site8233],10.3 ± 0.29
11,TATATATCTGTGAAAATACTTAAATTGTTATAAAAA [CACACA_negctrl_site1109],9.88 ± 0.071
12,CGGCTATTTCTATATACATGCATTTAAAAAAAAAAT [TGCATGCA_site354],10.1 ± 0.42
13,AATTTAAAACGGAGATGTACATATATAAATATATAC [XGTACX_site3723],11.2 ± 0.71
14,AACATATATTAGCTTACATGCAAAAAGTAAAAAAAT [TGCATGCA_site10],9.97 ± 0.028
15,AAAACATCAAAAATGTGTACATATATATATATATAT [XGTACX_site8884],11.4 ± 1.1
16,ATATATATATATGCATGTACATATTTATCTTTATAT [XGTACX_site232],11.1 ± 0.57
17,AAATTCTGCATCGAGGTGCGCCATAAAAATTGTGGT,10.2 ± 0.17
18,TACTAAAACCCATACACACACATATTTATAGTACCA [CACACA_site7484],10.7 ± 0.42
19,ATATTATATATATACACACACACATGCATGCACATA [CACACA_site7917],10.05 ± 0.028
20,TATTTTCTCGTTTGCATGCACCTTATTTTATGTGGT [GTGCAC_site9470],10.14 ± 0.057
